Reference: PubChem BioAssay AID1345083 (National Center for Advancing Translational Sciences (NCATS), 2018)
Out of some 94,000 compounds screened, about 6,200 (6.6%) were called active. Inconclusive means that the source gave no clear call. Such entries were picked first, then a sample of the others. Calls come from the whole dose curve; as a rule, active = well fitted inhibition curve with a large enough effect; inconclusive = small, poorly fitted or top-dose-only effect; inactive = flat fitted curve, though single readings scatter. Potencies beside an inconclusive call are fits to weak or partial responses and may not hold up.

Test: Cytotoxic Profiling in HEK 293 Cell Line of Diverse Libraries Using Quantitative High-Throughput Screening; note: nearly all actives have a fitted effect of over 60% in size
Conditions: HEK 293 viability, ATP luminescence (CellTiter-Glo), 48-72 h; series mostly up to 115 µM
Method in brief: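 HEK 293 cells at 250 cells/well were exposed to compounds by pintool transfer for 48 or 72 hr at 37 degree Celsius, 5% CO2. Viability was read as ATP-coupled luminescence with CellTiter-Glo after 10 min at room temperature.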
Potency is the fitted concentration of half-maximal effect; tags give direction and shape of the fitted curve.

Row | Compound | Potency
1 | O=C1c2cncnc2OCC(CNC(=O)C2(c3ccccc3)CC2)N1Cc1ccccc1 (stereo not drawn) | inconclusive: 63.1 µM [inhibitor, partial curve, poor fit]
2 | CN(C)c1cccc(-c2cnc3[nH]cc(CC(=O)N4CCOCC4)c3c2)c1 | active: 79.4 µM
3 | CN1C[C@@H](NS(=O)(=O)Cc2ccccc2)C[C@H]1c1nc(-c2ccccc2)no1 | inconclusive: 126 µM [inhibitor, single point]
4 | Cc1ccc(NC(=O)N2C[C@@H](F)C[C@H]2C(=O)N2CCc3ccccc3C2)cc1F | active: 39.8 µM
5 | CC(C)c1noc(-c2cn(C3CCN(C(=O)COc4ccccc4)CC3)nn2)n1 | inconclusive: 31.6 µM [inhibitor, full curve]
6 | CC(=O)Nc1cccc(OCc2nnc(C(=O)N3CCC[C@@H]3c3ccc(Br)cc3)n2Cc2ccccc2)c1 | active: 31.6 µM
7 | CC(C)NC[C@H]1Cn2c(-c3ccc(Cl)cc3)cnc2CO1 | inconclusive: 112 µM [inhibitor, partial curve, poor fit]
8 | COc1ccccc1-c1ccc(C(=O)N2CCC(C(=O)NC3CC3)CC2)cc1 | inconclusive: 39.8 µM [inhibitor, partial curve, poor fit]
9 | COCCN(C)C[C@@H]1CN(C(=O)c2ccc(Cl)cc2)C[C@@H]1CO | inactive
10 | CCOc1ccc(C(=O)NC2CCCN(c3cc(-c4ccccc4)[nH]n3)C2)cc1 (stereo not drawn) | inconclusive: 70.8 µM [inhibitor, partial curve, poor fit]
11 | Cc1noc(C)c1-c1cc(-c2ccccc2C(F)(F)F)cn2cncc12 | active: 70.8 µM
12 | Cc1noc(-c2cn(C3CCN(C(=O)c4ccc[nH]4)C3)nn2)n1 (stereo not drawn) | inactive
13 | O=C(NCc1cccc(F)c1)C1CCN(Cc2ccccc2-c2ccccc2F)CC1 | active: 39.8 µM
14 | CN1CCC(N2CC[C@H](c3nc4ccc(C(F)(F)F)cc4[nH]3)C2)CC1 | inconclusive: 70.8 µM [inhibitor, full curve, poor fit]
15 | O=C(N[C@H]1CCN2C(=O)c3cc(/C=C/c4ccccc4)ccc3NC(=O)[C@H]12)C1CCCC1 | inconclusive: 112 µM [inhibitor, partial curve, poor fit]
16 | Cc1ccc(C2(O)CCN(CC(c3ccccc3)c3ccccc3)CC2)nc1 | inconclusive: 89.1 µM [inhibitor, single point]
17 | O=C(c1nc(-c2cccc(C(F)(F)F)c2)c2cnccn12)N1CCCC1 | inconclusive: 89.1 µM [inhibitor, single point]
18 | O=C(c1ccc(Cl)cc1)N1CCC2(CC1)C(=O)NCN2CCc1ccc(Cl)cc1 | active: 39.8 µM
19 | CC(C)(C)c1nnc2ccc(C(=O)N3CCOCC3)cn12 | inactive
20 | Cc1cc2nc3n(c(=O)c2n1CC(=O)Nc1ccc(Cl)cc1)CCCCC3 | inconclusive: 89.1 µM [inhibitor, partial curve, poor fit]
21 | CCOc1ccccc1C(=O)NCCc1noc(-c2ccccc2)n1 | inconclusive: 50.1 µM [inhibitor, partial curve, poor fit]
22 | COC(=O)N1CCc2nc(C3CC3)nc(-c3ccc(O)cc3)c2CC1 | inactive
23 | CCCN1CC2(CCN(C)CC2)CC1C(=O)N(C)Cc1ccn[nH]1 (stereo not drawn) | inconclusive: 17.8 µM [inhibitor, full curve, poor fit]

Row | Compound | Potency
24 | CC(=O)Nc1ccc(NC(=O)Cn2ccn3nc4c(c3c2=O)CCCCC4)cc1 | active: 35.5 µM
25 | COc1ccc(-c2cnc3n[nH]c(-c4sccc4C)c3n2)cc1OC | active: 63.1 µM
26 | CC(C)CNC(=O)c1ccnc(-c2nnc3ccc(Nc4ccccc4)nn23)c1 | inconclusive: 100 µM [inhibitor, partial curve]
27 | COC(=O)N1CCCC(C(=O)N2CCCC(c3nc4ncccc4[nH]3)C2)C1 (stereo not drawn) | inactive
28 | O=C(Cc1ccccc1)Nc1ccnn1C1CCN(Cc2cc3ccccc3s2)CC1 | inconclusive: 56.2 µM [inhibitor, partial curve, poor fit]
29 | COCC(=O)Nc1ccc(-c2noc([C@@H]3CCCN3CC(C)(C)C)n2)cn1 | active: 100 µM
30 | COc1ccc(CC(=O)N2CC(=O)N(c3ccc(Cl)cc3)CC2C)cc1 (stereo not drawn) | inconclusive: 39.8 µM [inhibitor, partial curve, poor fit]
31 | Cc1nc2c(NS(=O)(=O)c3cccc(C#N)c3)cccn2n1 | inactive
32 | Cc1ccc(-c2cc(C(=O)NCCc3ccc(F)cc3)c3cnn(C)c3n2)cc1 | inconclusive: 17.8 µM [inhibitor, full curve]
33 | O=C(Nc1ccccc1F)N1CCCCCC1c1nc(-c2cccnc2)no1 (stereo not drawn) | inconclusive: 31.6 µM [inhibitor, full curve]
34 | CC1(c2noc(-c3ccccc3)n2)CCN(C(=O)CCC(=O)N2CC(=O)Nc3ccccc32)CC1 | inconclusive: 56.2 µM [inhibitor, partial curve, poor fit]
35 | O=C(C1CCCC1)N1CCN(c2ccc3nnc(C4CC4)n3n2)CC1 | inactive
36 | C[C@@H]1C(=O)O[C@H]2[C@H]1CC[C@@]1(C)Cc3sc(NC(=O)c4ccncc4)nc3[C@@H](C)[C@H]21 | active: 56.2 µM
37 | O=C1COCCN1C1CCN(Cc2cccc3ccccc23)CC1 | inactive
38 | Cc1ccc(-c2noc(C3CCCN3Cc3ccccc3)n2)nn1 (stereo not drawn) | inconclusive: 89.1 µM [inhibitor, single point]
39 | O=C(NCc1ccccc1F)c1ccc2c(c1)CN(Cc1cccc(F)c1F)CCO2 | inconclusive: 50.1 µM [inhibitor, partial curve, poor fit]
40 | O=C(c1ccc(Cl)s1)N1CCCC2(C1)Nc1cccnc1NC2=NC1CCCC1 (stereo not drawn) | inconclusive: 50.1 µM [inhibitor, partial curve, poor fit]
41 | O=C1NCCCCCCN(Cc2cccc3[nH]ccc23)[C@H]2CCC[C@@H]12 | inconclusive: 89.1 µM [inhibitor, single point]
42 | O=C(C1CCCN(Cc2cccc(-c3ccsc3)c2)C1)N1CCOCC1 (stereo not drawn) | inconclusive: 89.1 µM [inhibitor, single point]
43 | O=C(NC1CCN(c2cc(-c3ccc(F)cc3)[nH]n2)C1)c1cccc(Cl)c1 (stereo not drawn) | inconclusive: 50.1 µM [inhibitor, partial curve, poor fit]
44 | O=C(CCN1c2ccccc2Sc2ccccc21)N1CCCC(c2nc(C3CCOCC3)no2)C1 (stereo not drawn) | active: 39.8 µM
45 | CN1CCN(c2nc3c(c(=O)[nH]2)CCN(Cc2ccc4[nH]ccc4c2)CC3)CC1 | inactive
46 | O=c1c2nc(Nc3cccnc3)ccc2ncn1Cc1ccccc1 | inconclusive: 100 µM [inhibitor, partial curve, poor fit]

Row | Compound | Potency
47 | Cc1noc2c(N3CCOCC3)cc(-c3cccc(C(F)(F)F)c3)nc12 | inconclusive: 56.2 µM [inhibitor, single point]
48 | O=C(c1ccccc1-c1ccccc1F)N1CCCC(CO)(Cc2ccccc2F)C1 (stereo not drawn) | inconclusive: 17.8 µM [inhibitor, full curve, poor fit]
49 | O=C(C1CC1)N1CCCC(C(=O)N2CCCC(c3nc4ccncc4[nH]3)C2)C1 (stereo not drawn) | inactive
50 | COc1ccc(CN2C[C@H]3CN(Cc4cccc(OC)n4)CCN3C2=O)cc1 | inconclusive: 39.8 µM [inhibitor, partial curve, poor fit]
51 | COc1ccc(NC2CCCN(CC(=O)Nc3ccc(C)cn3)C2)cc1 (stereo not drawn) | inactive
52 | COc1ccccc1-c1cccc(C(=O)N2CCN(C(=O)c3ccccc3F)CC2)c1 | active: 89.1 µM
53 | CNC(=O)NCCc1ncc(C)n1C1CCCCCCC1 | inactive
54 | CN(C)C[C@@H]1CN(Cc2ccccc2)C[C@H]1NC(=O)c1nccn1C | inconclusive: 89.1 µM [inhibitor, single point]
55 | CCc1ccc(CN2CCC3(Cc4ccccc4CNC3=O)C2)cc1 (stereo not drawn) | inconclusive: 50.1 µM [inhibitor, partial curve, poor fit]
56 | COc1ccc(CCC(=O)N2CCCC(Cc3noc(-c4ccccc4)n3)C2)cc1 (stereo not drawn) | inconclusive: 50.1 µM [inhibitor, partial curve, poor fit]
57 | Cc1cc(C(F)(F)F)nn1CC(=O)N1CCc2nn(CC3CC3)c(=O)n2CC1 | inactive
58 | N#Cc1cccc(C(=O)NC2CCN(c3cc(-c4ccc(F)cc4)[nH]n3)CC2)c1 | inconclusive: 44.7 µM [inhibitor, partial curve, poor fit]
59 | CCC1=C(C(=O)OC)C(c2cccc(C)c2)N2C(CC(=O)N3CCCCC3C)=CSC2=N1 (stereo not drawn) | active: 44.7 µM
60 | Cc1ccc(Nc2ccnc(N3CCCC3C(=O)NCCCc3ccccc3)n2)cc1 (stereo not drawn) | active: 39.8 µM
61 | O=C(C1CCCN1C(=O)NC1CCCC1)N1CCC(N2Cc3cccn3C2=O)CC1 (stereo not drawn) | inactive
62 | O=C(NC1CCN(c2cn[nH]c(=O)c2)CC1)C1CCC1 | inactive
63 | COc1ccccc1C(=O)NCCC1CCN(C(=O)Nc2cc(F)cc(F)c2)CC1 | inconclusive: 79.4 µM [inhibitor, partial curve, poor fit]
64 | Fc1ccc2nc([C@H]3CCN(Cc4cccs4)C3)[nH]c2c1 | active: 70.8 µM
65 | Cc1cccc(NC(=O)Cn2ccn3nc4c(c3c2=O)CCCC4)c1C | inconclusive: 89.1 µM [inhibitor, single point]
66 | CC1=C(C(=O)OC(C)C)C(c2ccccc2C)N2C(CC(=O)N3CCCC3)=CSC2=N1 (stereo not drawn) | inconclusive: 35.5 µM [inhibitor, partial curve, poor fit]
67 | COc1ccc(C(=O)N2CCCCCCNC(=O)CC2)c(OC)c1 | inactive
68 | Cc1ccccc1-c1[nH]nc2ncc(-c3ccccc3C#N)nc12 | inconclusive: 63.1 µM [inhibitor, full curve]
